# Screen size: about 150,000 compounds; about 540 (0.36%) showed an effect of 50% or more. Some of the results follow.
# Test system: Plasmodium falciparum
# Test: Primary screen in NF54 nanoGlo assay, in single point, at 2uM, 72h; a lower Z score goes with more inhibition
# Assay type: functional, Erythrocyte
# Conditions: timepoint 72 hour
SMILES,% Inhibition [%],Z score
CCC1(CC)CC(=O)N(Cc2cccc(OC)n2)C1=O,-8,1.16
COCCCN1CCC(Nc2ncnc3cc(C)c(C)cc23)CC1,96,-16.62
COc1ccc(OC)c2c(C)cc(NCC(C)(C)CN(C)C)nc12,-9,1.52
Cc1ccc2nccc(C(=O)N3CCC[C@H](Nc4ccc(F)c(F)c4)C3)c2c1,0,0.03
CCN1CCN([C@H]2CCN(c3nccc4nccnc34)C2)CC1,2,-0.37
O=C(Nc1ccnn1Cc1ccccc1C(F)(F)F)N1CCC[C@H]1CO,-1,0.17
CC(C)Oc1ccc(Br)c2cccnc12,-6,0.92
O[C@H]1C[C@@H](NCc2c(Cl)cncc2Cl)C1,-7,1.37
CN(C)C(=O)CN1CCCN(C(=O)c2ccc(-c3ccnc(N)n3)cc2)CC1,-1,0.2
CN(Cc1ccnc2ccccc12)C(=O)CCc1nnc(-c2ccc3c(c2)OCO3)o1,1,-0.17
CN1Cc2ccccc2C[C@@H]1CNc1nccc(-c2ccncc2)n1,-11,1.72
C[C@@H](C1CCN(c2nc(CCN)nc3ccccc23)CC1)N1CCN(C)CC1,7,-1.41
CCN1CCN(CCOc2ccccc2CN(C)Cc2cccc3cnccc23)CC1,7,-1.54
Cc1nc(C(C)N(C)C(=O)CCc2ccnn2C)c(C)s1 (stereo not given),-1,0.19
COc1cccc2[nH]cc(CC(=O)Nc3nc4ccccc4n3C3CCCC3)c12,-8,1.31
CN1CCC[C@H](CN2CCN(Cc3cc4n(n3)CCCNC4)CC2)C1,19,-4.12
Cn1ncc2cc(-c3ccnc4[nH]ccc34)ccc21,-7,1.5
O=C(N[C@H](CO)CC1CCCCC1)c1cccc(-c2ncnc3[nH]ccc23)c1,-8,1.5
COc1ccccc1Nc1ncc(CN2CCc3c(cnc(C)c3C#N)C2)s1,-5,0.93
NC(=O)c1ccc(OCCCN2CCCN(C3CCCC3)CC2)cc1,5,-1.04
CCC(CC)(CNc1nc(N)c2ccccc2n1)S(C)(=O)=O,0,0.02
Cc1cncc(Nc2cccc3ncccc23)n1,-5,0.83
OCc1cnc(NCCCN2CCN(Cc3ccccc3)CC2)cn1,-4,0.71
Cc1ccc(NCCCNC(=O)c2ccc3c(c2)[nH]c(=O)n3[C@H]2CC[C@H](O)CC2)nc1,6,-0.97
COc1ccc2ccc(N3CCC(NCCO)CC3)nc2c1,-2,0.52
Cc1cc(C(=O)N2CC(O)C(CS(=O)(=O)N(C)C)C2)n(C)n1 (stereo not given),-5,1.06
CCNc1ccnc(NCc2cccc(CO)c2)n1,0,0
CN1CCN(c2ccc(NC(=O)[C@@H]3COCCN3CC(F)(F)F)nc2)CC1,-11,1.66

SMILES,% Inhibition [%],Z score
C[C@@H](c1cccc(-c2c[nH]c(C(=O)N3CCCCC3)c2)c1)N1CCCC1,-4,0.83
O=C([C@@H]1CCCN1C1CCNCC1)N1CCN(c2ccncc2)CC1,0,0.05
CCCc1cccc(CNC2CCN(C3CCN(C)CC3)CC2)c1,76,-16.27
CC(=O)N(Cc1noc(C(C)C)n1)[C@H]1CCN(c2ncnc3[nH]ccc23)C1,0,-0.03
O=C(CCN1Cc2ccccc2C1=O)NCc1nc(-c2cnccn2)n[nH]1,-2,0.33
CN(C)c1ccc(N[C@H]2CCCN(C(=O)c3cnccc3N(C)C)CC2)cn1,-7,1.32
O=C1C[C@H](CNc2nccc(-c3ccccn3)n2)CN1C1CCCC1,1,-0.17
C1CC2CCC(NC3CCC4(CCNCC4)CC3)C2C1 (stereo not given),-3,0.52
CN(CCNS(C)(=O)=O)Cc1cn(C)nc1C(F)(F)F,-5,1.03
COCC(=O)N1CCc2c(NC(=O)C(C)(C)F)cccc21,-1,0.14
O=C(c1nc2ccccn2c1Br)N1CC[C@@H](F)C1,-4,0.89
COCCN1CC[C@H](CN(C)c2ccnc3cc(Cl)ccc23)C1,98,-17
Cc1[nH]c2ccc(Cl)cc2c1CCNC(=O)[C@@H]1CC2(CCNCC2)CN1,-8,1.39
Cc1cc(C)c(-c2csc(Nc3ncnc4[nH]ncc34)n2)cc1C,33,-4.97
Cc1cc2c(cc1C(=O)NCCCc1ccncc1)OCCO2,-8,1.32
CC[C@@H](CNc1cc(N2CCCCC2)ncn1)N1CCN(C)CC1,-7,1.21
COc1ccc(C(=O)Nc2ccc(-c3csc(Nc4cccnc4)n3)cc2)cc1F,-3,0.53
O=S(=O)(NC[C@H]1CCOC2(CCC2)C1)c1ccccc1Br,-1,0.1
COc1cc(N[C@H]2CCCN(Cc3cc(-c4cnn(C)c4)no3)C2)cc(OC)c1,4,-0.64
c1cn(-c2cc(NCc3ccnc(OC4CCCC4)c3)ncn2)cn1,-6,1.1
CC(=O)N1CCN(Cc2cccc(-c3cncc(-n4cnc(C)c4)c3)c2)CC1,-6,1.18
CC(C)NC(=O)c1ccnc(NCCCN2CCCC[C@@H]2CO)c1,-7,1.08
COc1cccc(OCc2cc(C(=O)N(C)Cc3nc4ccccc4o3)no2)c1,-2,0.35
OCC1CCCN1CCCCNC1CC2(CCC2)Oc2ccccc21 (stereo not given),23,-5.06
CCN(CCCN1CCCC1)C(=O)NCCN1CCC(N(C)C)CC1,-10,2
Brc1ccc(CNc2nc3ccccc3[nH]2)c2ncccc12,12,-1.77
Cc1ccc2[nH]c3c(c2c1)CCCC3NC1CC2CCC1O2 (stereo not given),-7,1.25

# Reference: ChEMBL document CHEMBL5308541, “MAIP: An Open-Source Tool to Enrich High-Throughput Screening Output and Identify Novel, Druglike Molecules with Antimalarial Activity” (ACS Med Chem Lett, 2023)
